Measurements taken from article PMC4336329 (PLoS ONE, 2015).
The whole screen tested about 310,000 compounds, of which about 14,000 (4.5%) showed an effect of 50% or more. Effects have a minus sign here. This is one part of the list.

These compounds were tested against human ether-à-go-go-related gene (hERG) potassium channel (human, UniProt Q12809) (assay: primary screen, population patch clamp on CHO cells stably expressing hERG).
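Further: peak tail current of the secondary pulse compared with the same well before compound.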

Sequence of human ether-à-go-go-related gene (hERG) potassium channel (Q12809 whole entry, looked up): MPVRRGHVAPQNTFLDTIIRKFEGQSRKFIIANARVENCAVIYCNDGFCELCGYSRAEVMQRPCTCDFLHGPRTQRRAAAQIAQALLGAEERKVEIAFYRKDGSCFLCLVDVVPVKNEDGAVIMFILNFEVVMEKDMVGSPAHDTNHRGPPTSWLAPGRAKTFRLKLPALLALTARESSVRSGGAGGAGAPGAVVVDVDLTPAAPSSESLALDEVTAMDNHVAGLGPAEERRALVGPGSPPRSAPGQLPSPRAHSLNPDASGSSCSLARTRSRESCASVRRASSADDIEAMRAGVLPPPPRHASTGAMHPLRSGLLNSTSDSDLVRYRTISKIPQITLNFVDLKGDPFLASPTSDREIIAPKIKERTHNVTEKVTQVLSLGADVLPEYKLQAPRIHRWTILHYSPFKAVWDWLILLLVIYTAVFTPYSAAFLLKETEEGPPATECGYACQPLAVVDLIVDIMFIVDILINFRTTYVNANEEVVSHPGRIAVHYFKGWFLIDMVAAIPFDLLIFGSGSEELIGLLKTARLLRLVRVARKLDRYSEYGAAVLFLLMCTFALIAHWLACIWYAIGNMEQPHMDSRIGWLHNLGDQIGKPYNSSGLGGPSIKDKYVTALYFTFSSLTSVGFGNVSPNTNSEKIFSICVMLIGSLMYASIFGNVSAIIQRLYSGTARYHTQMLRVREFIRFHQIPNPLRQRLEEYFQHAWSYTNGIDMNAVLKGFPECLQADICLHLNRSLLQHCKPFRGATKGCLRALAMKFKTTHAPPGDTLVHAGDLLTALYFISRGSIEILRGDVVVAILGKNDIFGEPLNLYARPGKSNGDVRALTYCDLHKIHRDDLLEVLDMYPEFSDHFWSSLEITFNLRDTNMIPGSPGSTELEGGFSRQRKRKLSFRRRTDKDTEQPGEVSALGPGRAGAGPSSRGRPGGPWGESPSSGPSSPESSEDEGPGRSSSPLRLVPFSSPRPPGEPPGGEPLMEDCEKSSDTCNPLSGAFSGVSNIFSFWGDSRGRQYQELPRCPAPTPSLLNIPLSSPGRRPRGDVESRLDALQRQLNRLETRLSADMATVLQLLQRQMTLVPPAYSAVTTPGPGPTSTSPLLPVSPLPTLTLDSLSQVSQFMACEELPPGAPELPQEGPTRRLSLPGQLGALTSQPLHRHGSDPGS

Compound | hERG current change (%, negative = inhibition) at 10uM [%]
Cc1ccc(NC2=NCC(=O)N2CCc2ccccc2)cc1C | 3.94
Cc1c(N(C(=O)c2ccccn2)C2(C(=O)NC3CCCC3)CCCCC2)c(=O)n(-c2ccccc2)n1C | -11.3
O=C(COC(=O)c1ccccc1C(=O)N1CCN(c2ccccc2)CC1)Nc1ccc(F)cc1 | -21.6
O=C(Oc1ccc2ccc(=O)oc2c1)c1ccc([N+](=O)[O-])cc1 | 6.74
Cc1c(-n2cccc2C=O)cccc1[N+](=O)[O-] | -17.9
COc1ccc(Br)cc1CNC(=O)CCC(=O)N1CCSc2ccccc21 | -19.8
CCOC(=O)/C=c1\s/c(=C\c2ccc(-c3ccccc3)cc2)c(=O)n1CC(=O)NCc1ccc2c(c1)OCO2 | -11.9
CCNC(=S)N(CCc1ccccc1C)Cc1cc2cc(OC)c(OC)cc2[nH]c1=O | -22.3
Cc1ccn2c(NCc3ccccc3)c(-c3cccs3)nc2c1 | 12.5
Cc1ccc(N2CC(C(=O)OCC(=O)c3c(N)n(CC(C)C)c(=O)n(C)c3=O)CC2=O)cc1 (centres unmarked) | -3.07
OCC1OC(Oc2c[nH]c3ccccc23)C(O)C(O)C1O (centres unmarked) | 51
CCOC(=O)CNc1nc(Cl)nc(N2CCCCC2)n1 | 11.5
CCCn1ccc2c(OCC(=O)Nc3ccc(NC(C)=O)cc3)cccc2c1=O | -5.81
COc1cccc(CNS(=O)(=O)c2ccc3c(c2)CC(C)N3C(=O)C2CCC2)c1 (centres unmarked) | -3.49
CC1CCN(S(=O)(=O)c2ccc3c(c2)N(CC(=O)NCCCN2CCCCC2)C(=O)CS3)CC1 | -10.6
Cc1ccc2[nH]c3c(c2c1)CN(C(=O)CN1c2ccc(F)cc2CCC1C)CC3 (centres unmarked) | 12.5
CCNC(=S)N/N=C/c1ccc(OCC(=O)Nc2ccc(C)cc2)cc1 | 4.81
Cc1c(C(=O)Nc2nccs2)sc2nc(-c3cccs3)cc(C(F)(F)F)c12 | 18.8
CC(C)c1nnc(NC(=O)CSc2nnc(NC(=O)c3c(F)cccc3F)s2)s1 | 0.313
O=c1c(Cl)c(N2CCN(S(=O)(=O)c3ccccc3)CC2)cnn1-c1ccccc1 | 8.48
Cc1ccc2cc(CCNC(=O)CC(C)(C)C)c(=O)[nH]c2c1C | 18.8
COc1cccc(C(=O)O/N=C(\N)c2ccccn2)c1OC | 23.2
O=C(COc1ccc(Cl)cc1)NCC(=O)N/N=C/c1cccs1 | 12
CC1CCCC(NC(=O)COC(=O)/C=C/c2ccco2)C1C (centres unmarked) | 9.6
CCOC(=O)N1CCC(NC(=O)c2cc(C(=O)Nc3cccc(C(F)(F)F)c3)ccc2CO)CC1 | -4.19
Cc1ccc(OCCCC(=O)ON=C(N)c2ccccc2C)cc1 | 8.18
O=C(CCCn1c(=O)oc2ccccc21)N1CCN(c2ccc(F)cc2)CC1 | -63.9

Compound | hERG current change (%, negative = inhibition) at 10uM [%]
Cc1cccc(-c2nc(NCCCN3CCOCC3)c3ccccc3n2)c1 | -47.1
Oc1ccccc1CNn1cnnc1 | 12.6
NC(=O)c1nnn(-c2ccc([N+](=O)[O-])cc2)c1-c1ccccc1 | -20.2
COc1ccc(C(=O)Nc2cc(C(F)(F)F)ccc2-n2cncn2)cc1 | -17.4
Cc1ccc(-n2c(C)cc3c2CCCC3=O)cc1 | 4.5
CCC(=O)NC(Nc1nc2ccc(C)cc2s1)(C(=O)OC)C(F)(F)F (centres unmarked) | 3.55
CCCSc1ccccc1C(=O)N1CCN(C(=O)c2ccco2)CC1 | 10.8
COCCCN1C(=O)C(=O)/C(=C(/O)c2ccc(S(=O)(=O)N3CCCCC3)cc2)C1c1ccc(OC)cc1 (centres unmarked) | 18.1
COc1cc(/C=N/NC(=O)c2ccc(Cl)cc2)ccc1OCC(=O)N1CC(C)OC(C)C1 (centres unmarked) | -18.3
CN(C)S(=O)(=O)c1ccc(C(=O)Nc2ccc(OCC(=O)N3CCOCC3)cc2)cc1 | 13.9
Cc1noc(C)c1S(=O)(=O)Nc1ccccc1N1CCOCC1 | -1.52
O=C(NCCNC(=O)c1cc(Cl)ccc1Cl)c1ccccn1 | -12.2
Cn1c(SCC(=O)N2CCOCC2)nnc1-c1ccc(Cl)cc1Cl | 17.8
Cc1ccc(S(=O)(=O)CCSc2ccc(C(F)(F)F)cn2)cc1 | 0.342
N#CCN1C(=O)C(=O)N(Cc2cccc(Cl)c2)C1=O | 15.4
CN1/C(=C\C=C(/C#N)C(=O)Nc2ccccc2F)C(C)(C)c2ccccc21 | -24.4
Cn1c(=NCC(O)COc2ccccc2)sc2ccccc21 (centres unmarked) | -42.7
NC(=O)c1ccc[n+](CC(=O)OCCC23CC4CC(CC(C4)C2)C3)c1.[Cl-] | 11.8
CCOC(=O)[C@@H]1[C@H]2COc3cc(OC)ccc3[C@@H]2N2C(=O)N(c3cccc(Cl)c3)C(=O)[C@@]12C | 11.3
O=C(NCCCN1CCN(c2ccc(F)cc2)CC1)C1CCCN(c2ncnc3c2nc2n3CCCCC2)C1 (centres unmarked) | -66.3
Cc1cc(C)n2nc(CC(=O)NCc3ccccc3Cl)nc2n1 | 0.407
Cc1ccc(N(C)C(=O)N2CCN(c3ccccn3)CC2)cc1 | -3.77
O=C(c1ccc(-n2cncn2)c([N+](=O)[O-])c1)N1CCN(S(=O)(=O)c2cccc(F)c2)CC1 | -71.9
CCOc1c(Br)cc(/C=C2/SC(=O)N(CC(=O)N3CCCC3)C2=O)cc1OC | 5.25
COc1ccc(NC(=O)CN(C)C(=O)c2ccc(N3CCOCC3)c([N+](=O)[O-])c2)cc1 | -46.3
CN(C)CCC[C@@]1(c2ccc(F)cc2)OCc2cc(C#N)ccc21.O=C(O)C(=O)O | -49.9
